Experimental findings from the GPR68 mutational scans of Howard et al. (2025) are described below.

Sequences and labels used below:
B1: GPR68, Q15743 (parent)
chain: MGNITADNSSMSCTIDHTIHQTLAPVVYVTVLVVGFPANCLSLYFGYLQIKARNELGVYLCNLTVADLFYICSLPFWLQYVLQHDNWSHGDLSCQVCGILLYENIYISVGFLCCISVDRYLAVAHPFRFHQFRTLKAAVGVSVVIWAKELLTSIYFLMHEEVIEDENQHRVCFEHYPIQAWQRAINYYRFLVGFLFPICLLLASYQGILRAVRRSHGTQKSRKDQIQRLVLSTVVIFLACFLPYHVLLLVRSVWEASCDFAKGVFNAYHFSLLLTSFNCVADPVLYCFVSETTHRDLARLRGACLAFLTCSRTGRAREAYPLGAPEASGKSGAQGEEPELLTKLHPAFQTPNSPGSGGFPTGRLA

The least precise scores are not listed. Two further conditions of the source, in which the scores hardly spread, are not listed. Read del as a deletion of the residues named and ins as an insertion between two positions. For part of these data: The concentration of ogerin is not given here.

In series [1] the parent is B1. Description: cAMP reporter score (Enrich2 score, wild type = 0); higher = more signal; HEK293T, FACS bins.
Series [2] covers variants of B1. Description: surface expression score (Enrich2 score, wild type = 0); higher = more signal; HEK293T, FACS bins.

As to Y106V, the cAMP reporter score in series [1] (pH 6.5, modulator: ogerin) was -0.432. In addition, the surface expression score in series [2] is -0.289.
V123del: the cAMP reporter score in series [1] (pH 6, modulator: ogerin) is -1.09; in series [1] (pH 6.5, modulator: ogerin), -0.943. In addition, in series [2], the surface expression score was -2.18.
On to V235M, for which the cAMP reporter score in series [1] (pH 6, modulator: ogerin) came out at 1.65; in series [1] (pH 6.5, modulator: ogerin), 2.12. Further, the surface expression score in series [2] stood at 0.058.
Turning to V235Y, the cAMP reporter score in series [1] (pH 6, modulator: ogerin) was -0.652; in series [1] (pH 6.5, modulator: ogerin), -0.431.
On to I99F, for which the cAMP reporter score in series [1] (pH 6, modulator: ogerin) was -0.65.
Consider I99S, for which the cAMP reporter score in series [1] (pH 6, modulator: ogerin) is -1.33. The surface expression score in series [2] is -1.04.
Consider A267Q, for which the cAMP reporter score was -0.332 in series [1] (pH 6, modulator: ogerin) and -0.974 in series [1] (pH 6.5, modulator: ogerin).
Take F127Q: in series [1] (pH 6, modulator: ogerin), the cAMP reporter score was -0.684.
Regarding L82Q, the cAMP reporter score in series [1] (pH 6, modulator: ogerin) is -0.718; in series [1] (pH 6.5, modulator: ogerin), -0.434.
The corresponding values for E149K are -1.03 and -0.432.
On to E149T, for which the cAMP reporter score in series [1] (pH 6.5, modulator: ogerin) is -0.426. Moreover, the surface expression score in series [2] was -1.07.
On to E326S, for which the surface expression score in series [2] was determined as 1.19.
Consider C114_I115insG, for which, in series [2], the surface expression score is -0.285.
For the variant R133_T134insG, the cAMP reporter score was -2.78 in series [1] (pH 6, modulator: ogerin) and -1.51 in series [1] (pH 6.5, modulator: ogerin). Moreover, the surface expression score in series [2] was -0.447.
The corresponding values for F45P are -1.49, -0.779 and -3.16.
Consider H169C, for which the cAMP reporter score in series [1] (pH 6, modulator: ogerin) is 0.399; in series [1] (pH 6.5, modulator: ogerin), 0.214.
As to D85Y, the cAMP reporter score in series [1] (pH 6, modulator: ogerin) worked out at 0.437.
L297N: in series [1] (pH 6.5, modulator: ogerin), the cAMP reporter score is -1.68. The surface expression score in series [2] came out at 0.305.
As for A137M, the cAMP reporter score in series [1] (pH 6, modulator: ogerin) is 0.666; in series [1] (pH 6.5, modulator: ogerin), 0.072. The surface expression score in series [2] was -0.59.
As for L135Y, the cAMP reporter score is -0.818 in series [1] (pH 6, modulator: ogerin) and -1.16 in series [1] (pH 6.5, modulator: ogerin).
With A24R, the cAMP reporter score was -1.49 in series [1] (pH 6, modulator: ogerin) and -2.48 in series [1] (pH 6.5, modulator: ogerin). The surface expression score in series [2] is -0.405.
Take I226H: the cAMP reporter score in series [1] (pH 6.5, modulator: ogerin) was -0.222. The surface expression score in series [2] is -0.508.
As to I154D, the cAMP reporter score in series [1] (pH 6, modulator: ogerin) was -0.661. Moreover, the surface expression score in series [2] is -0.396.
Take I154Y: the surface expression score in series [2] is -0.402.
Same read-out and setting: with T152Q the figure was 0.392.
With T152V, the cAMP reporter score was -0.205 in series [1] (pH 6, modulator: ogerin) and -1.61 in series [1] (pH 6.5, modulator: ogerin). In series [2], the surface expression score was -0.872.
T361G: the cAMP reporter score is -0.577 in series [1] (pH 6); -0.622 in series [1] (pH 6, modulator: ogerin); -0.459 in series [1] (pH 6.5, modulator: ogerin).
Regarding T361Q, the cAMP reporter score was 0.177 in series [1] (pH 6, modulator: ogerin) and -0.343 in series [1] (pH 6.5, modulator: ogerin). For the same variant, the surface expression score in series [2] was determined as 0.979.
On to V264N, for which, in series [1] (pH 6.5, modulator: ogerin), the cAMP reporter score was -1.08.
As to L121T, the cAMP reporter score is -0.995 in series [1] (pH 6, modulator: ogerin) and -0.427 in series [1] (pH 6.5, modulator: ogerin). In addition, the surface expression score in series [2] was -0.499.
Take H245F: in series [1] (pH 6.5, modulator: ogerin), the cAMP reporter score was -2.15. Further, the surface expression score in series [2] amounted to 0.26.
Consider H245G, for which the cAMP reporter score in series [1] (pH 6, modulator: ogerin) is -0.818; in series [1] (pH 6.5, modulator: ogerin), -0.467. The surface expression score in series [2] is -0.159.
Take H175C: in series [2], the surface expression score is -0.282.
Take H175E: the cAMP reporter score is -3.08 in series [1] (pH 6, modulator: ogerin) and -1.82 in series [1] (pH 6.5, modulator: ogerin). In addition, the surface expression score in series [2] is 0.807.
With P283I, the cAMP reporter score in series [1] (pH 6, modulator: ogerin) is -0.639; in series [1] (pH 6.5, modulator: ogerin), -1.34. In addition, the surface expression score in series [2] is -0.289.
V96E: the cAMP reporter score in series [1] (pH 6, modulator: ogerin) is -0.924; in series [1] (pH 6.5, modulator: ogerin), -0.69. The surface expression score in series [2] was -1.68.
The corresponding values for V96K are -1.2, -1.89 and -0.364.
As to S10_S12del, in series [1] (pH 6, modulator: ogerin), the cAMP reporter score was -0.719.
Take V192_G193insGSG: the cAMP reporter score was -0.786 in series [1] (pH 6, modulator: ogerin) and -2.41 in series [1] (pH 6.5, modulator: ogerin).
Consider F173N, for which the cAMP reporter score in series [1] (pH 6, modulator: ogerin) was -0.477. Also, the surface expression score in series [2] worked out at 0.424.
Take G358F: the cAMP reporter score in series [1] (pH 6) was 0.387; in series [1] (pH 6, modulator: ogerin), 0.454; in series [1] (pH 6.5, modulator: ogerin), -0.323.
On to D259F, for which the surface expression score in series [2] is -0.405.
Same read-out and setting: with G110T the figure was -1.14.
For G110C, the cAMP reporter score in series [1] (pH 6, modulator: ogerin) was -1.5; in series [1] (pH 6.5, modulator: ogerin) it was -0.433. For the same variant, the surface expression score in series [2] was -0.423.
